From PubChem BioAssay AID1159614 (National Center for Advancing Translational Sciences (NCATS), 2016)
The whole screen tested about 45,000 compounds, of which about 65 (0.1%) were called active. Calls follow the shape of the dose curve; as a rule, active = well fitted activation curve with a large enough effect; inconclusive = small, poorly fitted or top-dose-only effect; inactive = no such curve, though single readings can be large or run the other way. The list shows a part of the results.

target: Galactocerebrosidase (Homo sapiens) (UniProt P54803); assay: A Novel Cell-Based Assay to Identify Small Molecules for B -Galactocerebrosidase; settings: 145M-Twi-hGALC-G270D cells (Twitcher mouse brain line with human GALC G270D), HMU-beta-Gal fluorescence, 48 h; series mostly up to 57.5 µM; activation: at the top concentration; also: 0% is about no effect; nearly all actives have a fitted effect of over 65% in size
UniProt P54803, sequence (P54803 whole entry, looked up): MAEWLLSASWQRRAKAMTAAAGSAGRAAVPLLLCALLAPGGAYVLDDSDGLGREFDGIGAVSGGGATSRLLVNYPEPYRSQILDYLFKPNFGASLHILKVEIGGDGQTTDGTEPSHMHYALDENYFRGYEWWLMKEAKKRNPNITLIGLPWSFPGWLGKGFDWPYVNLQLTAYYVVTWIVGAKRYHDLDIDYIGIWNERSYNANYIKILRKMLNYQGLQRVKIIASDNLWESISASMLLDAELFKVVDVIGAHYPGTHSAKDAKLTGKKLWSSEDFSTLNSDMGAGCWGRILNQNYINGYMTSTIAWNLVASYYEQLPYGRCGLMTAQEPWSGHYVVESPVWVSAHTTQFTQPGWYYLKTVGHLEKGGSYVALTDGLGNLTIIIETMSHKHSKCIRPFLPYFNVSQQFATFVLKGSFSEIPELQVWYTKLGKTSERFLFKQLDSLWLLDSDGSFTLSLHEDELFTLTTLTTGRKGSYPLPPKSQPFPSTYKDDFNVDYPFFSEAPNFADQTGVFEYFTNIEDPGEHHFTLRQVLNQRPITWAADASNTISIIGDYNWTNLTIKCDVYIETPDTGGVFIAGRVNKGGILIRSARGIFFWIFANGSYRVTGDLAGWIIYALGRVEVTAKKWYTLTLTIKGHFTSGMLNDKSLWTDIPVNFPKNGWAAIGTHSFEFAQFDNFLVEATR
Procedure, shortened: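 Live 145M-Twi cells (Twitcher mouse brain-derived, GALC-null) stably expressing human GALC-G270D, with a wild-type GALC line, were compound-treated. Residual GALC activity was then read as fluorescence from 0.1 mM final HMU-β-gal at pH 5.2; higher signal means activation.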

activation, inactive:
COc1ccccc1NC(=O)Cn1c(=O)n(-c2ccc(C)cc2)c(=O)c2c1cnn2C -16.4%
CCOc1ccc(NC(=O)c2oc3ccccc3c2NC(=O)c2cc3ccccc3o2)cc1 -9.62%
CCOC(=O)CSc1nc2cc3c(cc2c(=O)n1CCCCCC(=O)NCc1ccc(OC)cc1)OCO3 1.35%
CN(C)c1ccc(CNC(=O)c2ccc3nc(CCc4ccccc4)oc3c2)cc1 -16.9%
Cc1ccc(N2C(=O)CSC23C(=O)N(CC(=O)Nc2ccccc2F)c2ccccc23)cc1C (stereo not drawn) -25.6%
Cc1ccc(CNC(=O)c2ccc(CS(=O)(=O)c3ccccc3C)o2)cc1 -6.77%
COc1ccc(N2CCN(CCCNC(=O)c3ccc4nc(N5CCCCC5)sc4c3)CC2)cc1 -2.96%
Cc1ccc(/C=C/c2onc(C)c2S(=O)(=O)N2CCC(C(=O)N(CCC(C)C)Cc3ccco3)CC2)cc1 -8.73%
CCc1cccc(NC(=O)CCNS(=O)(=O)c2ccc3c(c2)CCN3C(C)=O)c1 -18.6%
O=C(Nc1ccc(Br)cc1)c1cccc(S(=O)(=O)N2CCc3ccccc32)c1 7.08%
CC(C)(C)c1ccc(-c2nnc(-c3ccccc3NC(=O)c3ccc(F)cc3F)o2)cc1 2.61%
COc1ccc(-n2nc(C(=O)Nc3cccc(Cl)c3)c3c4ccccc4n(C)c3c2=O)cc1Cl -11%
O=C(CSc1oc(-c2ccco2)nc1S(=O)(=O)c1ccc(Cl)cc1)Nc1ccc(F)cc1 -10.7%
CCCCCCC1CCC(C(=O)NC(C(=O)O)C(C)C)CC1 (stereo not drawn) -4.09%
COc1ccc2c(Sc3ccc(Cl)cc3)c(C(=O)N3CCCCC3)[nH]c2c1 -30.2%
COc1ccc(-c2nc3ccccc3n3c(-c4ccccc4)c4c(=O)n(C)c(=O)n(C)c4c23)cc1 -22.1%
CC(C)c1ccc(NC(=O)CSC2=Nc3ccccc3C3=NC(CC(=O)NC4CCCCC4)C(=O)N23)cc1 (stereo not drawn) -44.4%
Cc1ccc(C(=O)N2CCC(C(N)=O)CC2)cc1NC(=O)c1nsc2ccccc12 -8.77%
CCC(=O)Nc1ccc(O)cc1 -18.3%
COc1ccc(C2CC(=O)N(CC(=O)Nc3cccc(C)c3C)c3ccccc3S2)cc1OC (stereo not drawn) -8.71%
CN1CCN(C2Cc3ccccc3Sc3ccc(Cl)cc32)CC1 (stereo not drawn) 4.94%
COc1ccccc1CNC(=O)CCCn1c(=O)c2ccccc2n(Cc2ccc(C)cc2)c1=O -22.4%
COc1ccc(CN2CCCN(CC(=O)Nc3ccc4c(c3)OCCO4)S2(=O)=O)cc1 -14.3%
Cc1ccc(-c2noc(-c3nnn(CC(=O)Nc4cc(Cl)ccc4C)c3N)n2)cc1 -12.3%
CC1CCN(S(=O)(=O)c2cc(C(=O)N3CCN(c4ccccc4F)CC3)n(C)c2)CC1 -7.5%
Cc1nn(C)c2c1c(C(F)(F)F)cc(=O)n2CC(=O)N1CCC(C)CC1 2.97%
Cc1ccc(CSc2nc3cccnc3n2Cc2ccc(C(=O)NCCc3cccs3)cc2)cc1 -33.5%
COc1ccc(N(CC(=O)NCCc2ccc(Cl)cc2)S(=O)(=O)c2c(C)nn(C)c2C)cc1 -12.8%
CCOC(=O)C1CCN(C(=O)c2nn(-c3ccc(OC)cc3)c(=O)c3c2c2ccccc2n3C)CC1 -12%
Cc1ccc(Sc2ccc(N3CCCC(C(=O)Nc4ccc(F)cc4F)C3)nn2)cc1 (stereo not drawn) -15.8%
CCCCn1c(SCC(=O)NCc2ccc(C)cc2)nc2c(sc3ccccc32)c1=O 12.6%
COCCN1CCN(Cc2ccc(C(=O)NC(C)C)cc2)C(=O)C1=O -19.4%
COc1ccc(NC(=O)c2oc3ccccc3c2NC(=O)Cc2cccs2)c(OC)c1 -3.93%
COc1ccc(CNC(=O)C(C)n2c(=O)cc(C)c3c(C)nn(-c4ccccc4)c32)cc1 (stereo not drawn) -21.9%
CCC1CN(C(=O)C2CCN(S(=O)(=O)c3c(C)noc3/C=C/c3ccccc3F)CC2)c2cc(C)ccc2O1 (stereo not drawn) -1.53%
CCN1CCN(Cc2c(O)ccc3cc(-c4ccc(OC)cc4)c(=O)oc23)CC1 -28.3%
COc1ccc(C)cc1Nc1nc(N)c2cc(OC)c(OC)cc2n1 -5.09%
CC(=O)c1cccc(NC(=O)c2nc(-c3ccccc3)n(-c3ccccc3C)n2)c1 -26.9%
COc1ccc(C2c3cccn3CCN2S(=O)(=O)c2ccc([N+](=O)[O-])cc2)cc1 (stereo not drawn) -16.3%
CCc1cccc(NC(=O)C2CCN(S(=O)(=O)c3cccc(-c4noc(C)n4)c3)CC2)c1 1.68%
Cc1nc2c(c(C)nn2-c2ccccc2)c(C)c1CCC(=O)NCc1ccccc1 -1.09%
NS(=O)(=O)c1cc2c(cc1Cl)NC(C(Cl)Cl)NS2(=O)=O (stereo not drawn) -10.8%
CCN1CCN(c2cc(C)c3cc(NC(=O)c4ccc(OC)c(OC)c4)ccc3n2)CC1 -14%
Cc1ccn2cc(-c3ccc(C)c(NS(=O)(=O)c4ccc(Cl)cc4)c3)nc2c1 -17.8%
Cc1nnc(N2CCCC(C(=O)NCCc3ccccc3)C2)c2nn(-c3ccccc3)c(C)c12 (stereo not drawn) 1.73%
Cc1ccc(S(=O)(=O)c2nc(-c3cccc(Cl)c3)oc2NCc2ccccc2)cc1 -17.2%
CCOC(=O)Cn1c(=O)oc2cc(S(=O)(=O)N3CCN(c4cc(C)ccc4C)CC3)ccc21 -22.9%
CN(C)CCNC(=O)c1ccc2c(c1)N(Cc1c(F)cccc1Cl)C(=O)c1ccccc1S2 -9.08%
CN[C@@H]1[C@H](O)[C@H](NC)[C@H]2O[C@@]3(O)C(=O)C[C@@H](C)O[C@H]3O[C@@H]2[C@H]1O -15.8%
COCCCNC(=O)c1ccc2nc(CCc3ccccc3)oc2c1 -7.58%
CCC(=O)N1CCc2cc(S(=O)(=O)NC(C(=O)Nc3cc(OC)cc(OC)c3)C(C)C)ccc21 (stereo not drawn) -17.4%
CCOC(=O)c1c(NC(=O)c2ccc(C)c(C)c2)sc2c1CCCCC2 -1.82%
CCc1ccc(C(=O)NC2=NC(c3ccccc3F)CC(=O)N2)cc1 (stereo not drawn) -5.9%
Cn1cnc(S(=O)(=O)N2CCCC(C(=O)Nc3ccc(OC(F)(F)F)cc3)C2)c1 (stereo not drawn) -3.11%
O=C(Nc1ccccc1Br)N1CCC(CN2CCCC2)CC1 -16.9%
Cc1ccc(OCC(=O)Nc2ccc(-c3nc4ccccc4o3)cc2)c(C)c1 -10.2%
CCOc1ccc(OCC)c(NS(=O)(=O)c2ccc3c(c2)CCN3C(=O)C2CCC2)c1 -6.8%
O=C(Cc1c(C(=O)O)[nH]c2ccccc12)Nc1cccc(C(F)(F)F)c1 21.7%
Cc1c(Cl)ccc2sc(N3CCN(C(=O)CS(=O)(=O)c4ccccc4)CC3)nc12 -15%
CCCN1CCN(CCCNC(=O)c2c(C)nn(-c3ccc(F)cc3)c2-n2cccc2)CC1 0.705%
CCOc1ccc(CNC(=O)Cn2c(=O)c3cccn3c3ccccc32)cc1 3.37%
COc1cccc(CNC(=O)CN2C(=O)CCn3nc(-c4cn(C)c5ccccc45)cc32)c1OC -17.5%
COc1cc(OC)cc(C(=O)Nc2ccc(S(=O)(=O)Nc3onc(C)c3C)cc2)c1 -20.4%
Cc1ccc(-n2c3c(cc(-c4nc(-c5ccc(Cl)cc5)cs4)c2=O)C(=O)CC(C)(C)C3)cc1 -14.2%
O=C(Cn1nc(C(F)(F)F)c2c1CCCC2)Nc1ccc(Cl)cc1 -7.35%
CCOC(=O)c1c(C)[nH]c(CCC(=O)Nc2cc(C)cc(C)c2)c1C 2.29%
O=C(NCCc1ccccc1)c1ccc(CSc2nc3ccncc3n2Cc2ccccc2)cc1 -8.61%
COc1ccc(NC(=O)Cn2ncc3c([nH]c4ccccc43)c2=O)cc1Cl -7.43%
CCN(CC)CCCNC(=O)c1cn(C)c2ccc(S(=O)(=O)N3CCOCC3)cc2c1=O -14.9%
Cc1ccc(NC(=O)CSc2nc(C)cc(C)c2C(=O)Nc2cccc(C)c2)cc1 -9.44%
CCc1ccc(N2C(=O)CSC23C(=O)N(Cc2cccc(F)c2)c2ccccc23)cc1 (stereo not drawn) -45.2%
CCOC(=O)c1cccc(NC(=O)c2cc(-c3ccc(Cl)s3)nc3ccccc23)c1 -12.3%
COc1ccc(OC(C)C(=O)NCc2nc(-c3ccc(Cl)cc3)no2)cc1 (stereo not drawn) -3.43%
COc1ccc(NC(=O)CNS(=O)(=O)c2cccs2)c(OC)c1 -17.7%
CCOC(=O)c1ccc2ncc(C(=O)OCC)c(Nc3ccc(C)c(Br)c3)c2c1 -14%
Cc1cccc(C(=O)Nc2cccc(C(=O)OCc3cc(=O)n4ccsc4n3)c2)c1 -22%
CCC(C(=O)NCc1ccccc1)n1ncn2c(cc3occc32)c1=O (stereo not drawn) -8.02%
Cc1ccc(NC(=O)c2cc3c(=O)n(Cc4cccnc4)ccc3nc2C)cc1F -19%
COc1ccc(Br)cc1CNC(=O)CN1C(=O)CSc2ccc(S(=O)(=O)N3CCOCC3)cc21 -14%
NS(=O)(=O)c1cc2c(cc1Cl)NC=NS2(=O)=O -14.9%
COc1ccc(OC)c(CNC(=O)c2cccc(NC(=O)N3CCSc4ncccc43)c2)c1 -13.9%
CC(C)Sc1ncc(Cl)c(C(=O)Nc2ccc(S(=O)(=O)N3CCCCC3C)cc2)n1 (stereo not drawn) -27.2%
O=c1c2oc3ccccc3c2n(Cc2cccc(C(F)(F)F)c2)c(=O)n1Cc1ccc2c(c1)OCO2 -3.64%
Cc1ccc(-n2nc(C)c3nc(CCC(=O)Nc4ccc(F)cc4)c(=O)n(C)c32)cc1 -11.2%
CCn1cc(C(=O)NC(C)c2ccccc2)c(=O)c2cc(S(=O)(=O)N3CCc4ccccc4C3)ccc21 (stereo not drawn) -5.9%
CCOc1ccccc1N(C)C(=O)NCc1noc2ccccc12 -12.4%
O=C(NCCc1ccc(Cl)cc1)c1cccn1-c1nnc(N2CCCC2)s1 -26.4%
COc1ccc(C(=O)c2cn(CC(=O)Nc3ccc4c(c3)OCO4)c3ccc(OC)cc3c2=O)cc1 -11.4%
CC(C)Nc1cccnc1N1CCN(C(=O)c2cc3cc(NS(C)(=O)=O)ccc3[nH]2)CC1 -15.9%
Cc1ccc(NC(=O)Cn2cc(S(=O)(=O)N3CCCC3)c(S(=O)(=O)N3CCCC3)c2)c(C)c1 -15.1%
COc1ccc(C(=O)N2CCC(C(=O)Nc3ccccc3Cl)CC2)cc1 0.501%
CCCn1cc(S(=O)(=O)c2ccccc2)c(=O)c2cc(F)c(N3CCCC3)cc21 11.1%
CCc1ccccc1NC(=O)c1cc(S(=O)(=O)NC2CCCC2)ccc1F -7.62%
